According to PubChem BioAssay AID1508642 (National Center for Advancing Translational Sciences (NCATS), 2021):
Screen size: about 43,000 compounds; about 200 (0.47%) were called active. This list was built around the results that the source calls inconclusive (neither active nor inactive); the mix of calls is not that of the screen. Calls follow the shape of the dose curve; as a rule, active = well fitted cell-killing curve with a large enough effect; inconclusive = small, poorly fitted or top-dose-only effect, or effect the other way; inactive = flat fitted curve, though single readings scatter. A potency beside an inconclusive call is a rough fit, not a confirmed value.

Test: Cell viability qHTS assay in S16 Pmp22-F2sN cells; also: nearly all actives have a fitted effect of over 65% in size
Conditions: S16 Pmp22-F2sN Schwann cells viability, CellTiter-Glo, 24 h; activity change, negative = cytotoxicity: at 57.5 µM (top of the series)
Method in brief: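 Used to flag compounds lowering reporter output through toxicity, this quantitative HTS measures ATP-based CellTiter-Glo luminescence in S16 Pmp22-F2sN Schwann cells after 24 h compound exposure at 37C.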
% is scaled to controls: 0 for no effect and ±100 for the full control effect; potency is read from the fitted curve at half-maximal effect; tags tell the direction and shape of the fitted curve.

Row | Structure (SMILES) | Potency | activity change, negative = cytotoxicity
1 | Cc1ccc(-n2ncc(C(=O)NCc3ccccn3)c2C2CCN(C(=O)OC(C)(C)C)CC2)c(C)c1 | inconclusive: 39.8 µM [cytotoxic, single point] | 
2 | Cc1ccc2occ(CC(=O)Nc3ccc(S(=O)(=O)N4CCCC(C)C4)cc3)c2c1 (stereo unspecified) | inconclusive: 31.6 µM [cytotoxic, single point] | 
3 | CC(C)(C)c1ccc(C(=O)N2CCCC(c3nc4c(nnn4Cc4cccc(F)c4)c(=O)[nH]3)C2)cc1 (stereo unspecified) | inconclusive: 39.8 µM [cytotoxic, single point] | 
4 | CCOc1ccc(NC(=O)CSc2c3c(nc4ccccc24)CCCC3)cc1 | inconclusive: 39.8 µM [cytotoxic, single point] | 
5 | CN(C)CCCn1c(-c2ccc(Cl)cc2)csc1=Nc1ccccc1 | inconclusive: 39.8 µM [cytotoxic, single point] | 
6 | O=C(NCC1CCN(Cc2cccc(Cl)c2)CC1)Nc1ccc(F)c(Cl)c1 | inconclusive: 35.5 µM [cytotoxic, single point] | 
7 | COC(=O)c1c(-c2ccc(Cl)cc2)noc1N1CCN(c2ccccc2OC)CC1 | inconclusive: 35.5 µM [cytotoxic, single point] | 
8 | O=C(NCCc1ccccc1)c1ccc2nc(CCc3ccccc3)oc2c1 | inconclusive: 11.2 µM [rising, partial curve, poor fit] | 
9 | Cc1nc2cc(-c3cccc(F)c3)nn2c(C)c1CCC(=O)Nc1ccccc1C(N)=O | inconclusive: 35.5 µM [cytotoxic, single point] | 
10 | O=C(NCCc1ccc(Cl)cc1)c1ccc(Nc2nc3ccccc3n3nnnc23)cc1 | inconclusive: 10 µM [cytotoxic, partial curve, poor fit] | 
11 | Cc1ccccc1Nc1c(-c2ccc(N3CCOCC3)cc2)nc2cccc(C)n12 |  | inactive: -10.5%
12 | O=C(CCS(=O)(=O)c1ccc(Br)s1)Nc1cc(C(F)(F)F)cc(C(F)(F)F)c1 | inconclusive: 28.2 µM [cytotoxic, single point] | 
13 | COc1ccc(-c2nc(CSCC(=O)N3CCN(c4ccccc4F)CC3)c(C)o2)cc1 | inconclusive: 28.2 µM [cytotoxic, partial curve, poor fit] | 
14 | O=C(NCCc1ccccc1)c1ccc2c(c1)nc1n2CCOC1 |  | inactive: 1.98%
15 | CCOC(=O)c1cccc(NC(=O)CSc2ncc3c(n2)-c2ccc(Cl)cc2N(Cc2ccccc2)S3(=O)=O)c1 | inconclusive: 6.31 µM [cytotoxic, full curve, poor fit] | 
16 | CCOc1ccc(CNC(=O)CSc2c3c(nc4cc(Cl)ccc24)CCCC3)cc1 | inconclusive: 39.8 µM [cytotoxic, single point] | 
17 | Cc1ccc(OCC(=O)NCC(=O)OCc2cc(=O)n3nc(C(C)C)sc3n2)cc1 | inconclusive: 1 µM [cytotoxic, full curve] | 
18 | COc1ccc(C(=O)NC(c2ccccc2Cl)c2cc(Cl)c3cccnc3c2O)cc1 (stereo unspecified) | active: 3.16 µM | 
19 | CCCc1cc(N2CCN(c3ccccc3F)CC2)n2cnnc2n1 | inconclusive: 17.8 µM [cytotoxic, partial curve] | 
20 | COc1ccc(-c2nc(C)c(CCNC(=O)c3ccc(C(F)(F)F)cc3)s2)cc1OC | inconclusive: 12.6 µM [rising, partial curve, poor fit] | 
21 | CC1=C(C(=O)N2CCCCC2)C(c2ccc(Cl)cc2)n2c(nc3ccccc32)N1 (stereo unspecified) | inconclusive: 39.8 µM [rising, partial curve, poor fit] | 

Row | Structure (SMILES) | Potency | activity change, negative = cytotoxicity
22 | Cc1cccc(C(=O)Nc2ccc(N3CC=C(c4ccccc4C)CC3)c(C(=O)O)c2)c1 |  | inactive: -3.59%
23 | O=C(NCCCN1CCN(c2ccc(F)cc2)CC1)Nc1ccccc1Cl |  | inactive: -22.4%
24 | CC(=O)Nc1cccc(NC(=O)CSc2nccn2Cc2ccccc2)c1 | inconclusive: 39.8 µM [cytotoxic, partial curve, poor fit] | 
25 | Cc1ccccc1-c1noc(-c2ccc(NCc3cccnc3)c([N+](=O)[O-])c2)n1 |  | inactive: -21.9%
26 | COc1ccc(OCCCn2c(C3CC(=O)N(c4ccc(F)cc4)C3)nc3ccccc32)cc1 (stereo unspecified) | inconclusive: 31.6 µM [cytotoxic, single point] | 
27 | Cc1cc(C)c2c(NC(=O)c3ccccc3Cl)c(C(=O)NCc3ccc(Cl)cc3)sc2n1 | inconclusive: 39.8 µM [cytotoxic, single point] | 
28 | O=C(C1CCN(S(=O)(=O)c2cccs2)CC1)N1CCN(c2ccccc2F)CC1 | inconclusive: 39.8 µM [cytotoxic, single point] | 
29 | CCC(CC)C(=O)Nc1ccc(S(=O)(=O)N2CCC(c3nc4ccccc4s3)CC2)cc1 | inconclusive: 39.8 µM [rising, partial curve, poor fit] | 
30 | CCCCN(CCCC)CCCNC(=O)c1cc(-c2ccc(Cl)s2)nc2ccccc12 | inconclusive: 35.5 µM [cytotoxic, single point] | 
31 | CCn1cc2nc(SCc3cc(C)ccc3C)n(Cc3ccc(Cl)cc3)c(=O)c2n1 | inconclusive: 10 µM [cytotoxic, partial curve, poor fit] | 
32 | Cc1ccc(-c2c3c(=O)n(C)c(=O)n(C)c3c3c(-c4cccc(C)c4)nc4ccccc4n23)cc1 |  | inactive: -0.762%
33 | O=S(=O)(c1cccc(Cl)c1)n1c(/C=C/c2ccccc2Cl)nc2ccccc21 | active: 12.6 µM | 
34 | N#Cc1nc(/C=C/c2ccc(F)cc2)oc1N1CCCCCC1 | inconclusive: 31.6 µM [cytotoxic, single point] | 
35 | Cc1cc(Cl)ccc1NS(=O)(=O)c1c(C(=O)N2CCCCCC2)c(C)n(C)c1C |  | inactive: 3.33%
36 | COc1ccc(CNC(=O)c2cc(-c3ccc(OC)c(OC)c3)nc3n[nH]c(-c4ccc(C)cc4)c23)cc1 |  | inactive: -12.6%
37 | CC(C)CNC(=O)C(=O)Nc1c2c(nn1-c1ccc(Cl)cc1)CSC2 | inconclusive: 31.6 µM [cytotoxic, partial curve, poor fit] | 
38 | CC1CCN(S(=O)(=O)c2ccc3nc(Nc4cccc(F)c4)ccc3c2)CC1 | inconclusive: 20 µM [cytotoxic, partial curve] | 
39 | COc1ccc2nc(N3CCN(C(=O)CS(=O)(=O)c4ccc(C)cc4)CC3)sc2c1 | inconclusive: 39.8 µM [cytotoxic, single point] | 
40 | Cc1ccc(-c2cnc(C3CC3)o2)cc1S(=O)(=O)Nc1ccc(F)cc1Cl | inconclusive: 39.8 µM [cytotoxic, partial curve, poor fit] | 
41 | CCOc1ccc(NC(=O)c2cnn3c2NC(C)=C(C(=O)Nc2ccc(Cl)cc2)C3c2ccc(OC)c(OC)c2)cc1 (stereo unspecified) | inconclusive: 35.5 µM [cytotoxic, single point] | 
42 | COc1ccc(-n2ccn3c(CC(C)(C)CC(=O)O)nnc3c2=O)cc1 |  | inactive: 5.88%

Row | Structure (SMILES) | Potency | activity change, negative = cytotoxicity
43 | CCOC(=O)c1ccc(N2C(=O)c3[nH]nc(-c4ccccc4)c3C2c2ccc(C(C)C)cc2)cc1 (stereo unspecified) | inconclusive: 31.6 µM [cytotoxic, single point] | 
44 | CC(CNC(=O)Cn1c(-c2cccs2)cc2cc(Cl)ccc21)c1ccccc1 (stereo unspecified) | inconclusive: 39.8 µM [cytotoxic, single point] | 
45 | Cc1ccc(CSc2nc3cccnc3n2Cc2ccc(C(=O)NCc3cccs3)cc2)cc1 |  | inactive: 22.9%
46 | Cc1ccc(NC(=O)C2CCN(C(=O)c3cnn(-c4ccccc4)c3-n3cccc3)CC2)cc1Cl | inconclusive: 39.8 µM [cytotoxic, single point] | 
47 | CC(=O)c1ccc(NC(=O)CC2Sc3ccccc3NC2=O)cc1 (stereo unspecified) |  | inactive: -2.04%
48 | CCc1ccc(NCc2cc3cc(OC)c(OC)cc3n(CC(=O)Nc3ccc(F)cc3)c2=O)cc1 |  | inactive: 15.1%
49 | Cc1ccccc1Cn1c(=O)n(CCCCC(=O)NCc2ccc3c(c2)OCO3)c(=O)c2ccccc21 |  | inactive: -3.23%
50 | CCCN1C(=O)c2[nH]nc(-c3ccc(F)cc3)c2C1c1ccc(O)c(OCC)c1 (stereo unspecified) |  | inactive: 12.9%
51 | COc1cccc(NC(=O)Cc2ccc(NC(=O)N3CCCCc4ccccc43)cc2)c1 | inconclusive: 1 µM [rising, full curve, poor fit] | 
52 | O=S(=O)(NCCc1csc2nc(-c3ccc(F)cc3)nn12)c1ccc2c(c1)OCCO2 | inconclusive: 25.1 µM [cytotoxic, single point] | 
53 | COc1cccc(CNC(=O)C2CCCN(S(=O)(=O)c3ccc4c(ccn4C)c3)C2)c1OC (stereo unspecified) | inconclusive: 39.8 µM [cytotoxic, single point] | 
54 | Cc1cc(C(=O)Nc2cccc(C(F)(F)F)c2)c2c(C)nn(-c3cccc(F)c3)c2n1 | inconclusive: 39.8 µM [cytotoxic, single point] | 
55 | O=C(NCCCN1CCN(c2ccccc2F)CC1)c1ccc2nc(Cc3ccccc3)oc2c1 | inconclusive: 39.8 µM [cytotoxic, single point] | 
56 | N#Cc1c(C(F)(F)F)cc(-c2cccs2)nc1SCC(=O)Nc1cccc(Br)c1 |  | inactive: 1.44%
57 | CCCN(CCC)CCCNC(=O)Cn1ncn2c(cc3sc(CC)cc32)c1=O | inconclusive: 0.0794 µM [rising, full curve, poor fit] | 
58 | CCCOc1ccc(CNC(=O)CCCN2C(=O)CSc3c2c(C)nn3-c2ccccc2)cc1 | inconclusive: 8.91 µM [cytotoxic, partial curve] | 
59 | CCOc1ccccc1NC(=O)CSc1nc2cc(OC)c(OC)cc2c2nc(CCn3c(C)nc4ccccc43)nn12 | inconclusive: 1.78 µM [cytotoxic, partial curve, poor fit] | 
60 | N#Cc1cccc(NC(=O)C2CCN(S(=O)(=O)c3ccc4c(c3)CCCN4C(=O)C3CCC3)CC2)c1 | inconclusive: 8.91 µM [cytotoxic, partial curve] | 
61 | Cc1ccc(CN2C(=O)C(=O)c3cc(Br)cc(C)c32)cc1 | inconclusive: 35.5 µM [cytotoxic, single point] | 
